# Test results published in PubChem BioAssay AID1768 (National Center for Advancing Translational Sciences (NCATS), 2009).
# “And” between values parts separate entries of the source, which are not always exact repeats. Identical values can stand only once. The campaign covered roughly 270,000 compounds. About 620 (0.23%) were called active. Inconclusive means that the source gave no clear call. Such entries were picked first, then a sample of the others. The call rests on the fitted dose curve; in most records, active means well fitted inhibition curve with a large enough effect in the polarisation, with a control signal flat (not every such curve was filed as active); inconclusive means small, poorly fitted or top-dose-only effect, or effect the other way, or a change in a side signal; inactive means no such curve, though single readings can be large or run the other way; the % refers to the polarisation. Where the call is inconclusive, the potency comes from a doubtful curve fit. “Side channel” marks fits to a control or component signal instead of the main read-out.
# Target: Menin (Homo sapiens) (UniProt O00255)
# Chain of UniProt O00255 (O00255 whole entry, looked up): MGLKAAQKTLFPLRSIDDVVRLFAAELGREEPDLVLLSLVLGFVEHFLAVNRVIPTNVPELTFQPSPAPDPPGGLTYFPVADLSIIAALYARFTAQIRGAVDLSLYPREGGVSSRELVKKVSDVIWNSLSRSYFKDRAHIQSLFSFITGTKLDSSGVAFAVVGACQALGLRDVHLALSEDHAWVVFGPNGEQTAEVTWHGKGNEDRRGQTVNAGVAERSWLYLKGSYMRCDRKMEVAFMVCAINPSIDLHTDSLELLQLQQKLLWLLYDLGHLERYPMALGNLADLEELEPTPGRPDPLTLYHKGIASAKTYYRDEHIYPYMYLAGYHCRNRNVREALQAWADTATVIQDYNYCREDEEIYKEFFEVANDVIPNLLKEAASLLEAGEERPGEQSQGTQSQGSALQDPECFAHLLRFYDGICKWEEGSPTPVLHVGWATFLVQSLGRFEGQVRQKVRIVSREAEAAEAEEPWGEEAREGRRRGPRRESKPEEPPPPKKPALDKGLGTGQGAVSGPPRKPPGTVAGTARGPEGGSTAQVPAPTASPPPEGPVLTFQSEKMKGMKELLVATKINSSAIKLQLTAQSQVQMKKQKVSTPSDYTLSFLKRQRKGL
# Experiment: qHTS Assay for Inhibitors Targeting the Menin-MLL Interaction in MLL Related Leukemias: Competition With Texas Red Labeled MLL-derived Mutant Peptide; on FP activity change, negative = inhibition: % of control where 0% means no effect
# Settings: fluorescence polarization; FP activity change, negative = inhibition: at 61.6 µM (top of the series)
# Potency means the concentration at half of the fitted maximal effect; tags describe the fitted curve by direction and shape or compound fluorescence and quenching.
SMILES,Potency,"FP activity change, negative = inhibition"
CC1=C(C(=O)OCC2CCCCC2)C(c2ccc(F)cc2)NC(=O)N1 (stereo not drawn),"inconclusive: 31.6 µM [fluorescent, side channel, single point]",–
O=C(N/N=C/c1cccnc1)c1ccc(NC(=O)c2ccccc2Cl)cc1,"inconclusive: 39.8 µM [fluorescent, single point]",–
Cc1cc(C(=O)COC(=O)CNC(=O)c2ccco2)c(C)n1Cc1ccco1,"inconclusive: 4.47 µM [fluorescent, side channel, single point]",–
CCOc1ccccc1N=c1oc2cc(O)ccc2cc1C(=O)NCC1CCCO1 (stereo not drawn),"inconclusive: 12.6 µM [quencher, side channel, partial curve]",–
CCOC(=O)/C(=N/Nc1ccccc1)c1csc(Nc2ccccc2)n1,"inconclusive: 11.2 µM [quencher, partial curve]",–
O=C(CN1CCN(c2ccccc2)CC1)Nc1ccc2c(c1)CCC2,–,inactive: -9.27%
NNc1nc2ccccc2nc1C(F)(F)F,–,inactive: 6.36%
COc1ccc(N(CC(=O)N/N=C(\C)c2ccccc2)S(=O)(=O)c2ccccc2)cc1,"inconclusive: 15.8 µM [fluorescent, side channel, partial curve]",–
COc1ccc(S(=O)(=O)N(C)c2ccc(C(=O)NCc3ccncc3)cc2)cc1,"inconclusive: 3.98 µM [quencher, side channel, single point]",–
CNC(=O)/C(C#N)=C/c1c(N2CCN(c3ccc(OC)cc3)CC2)nc2c(C)cccn2c1=O,"inconclusive: 11.2 µM [inhibitor, partial curve]",–
CCOC(=O)C1=C(C)N=c2s/c(=C\c3ccc(OCC(=O)O)cc3)c(=O)n2C1c1ccccc1 (stereo not drawn),"inconclusive: 20 µM [quencher, side channel, partial curve]",–
CCN(Cc1ccncc1)Cc1nc(Cc2ccccc2Cl)no1,"inconclusive: 3.16 µM [fluorescent, side channel, single point]",–
Cc1ccc(S(=O)(=O)NCC2CCC(C(=O)N3CCOCC3)CC2)cc1 (stereo not drawn),"inconclusive: 1.41 µM [inhibitor, full curve]",–
O=C(NC(c1ccc(Cl)cc1)c1cc(Cl)c2cccnc2c1O)c1cccnc1 (stereo not drawn),"inconclusive: 12.6 µM [quencher, side channel, partial curve]",–
CC(C(=O)NC1CCCC1)N(C(=O)c1ccc(-c2ccccc2)[nH]1)c1ccccc1F (stereo not drawn),"inconclusive: 25.1 µM [fluorescent, side channel, single point]",–
CC(=O)Nc1ccc(S(=O)(=O)Nc2nc3ccc([N+](=O)[O-])cc3s2)cc1,"inconclusive: 35.5 µM [quencher, side channel, single point]",–
CC(=O)c1ccc(N2CCN(C3CCC(C(C)(C)C)CC3)CC2)cc1 (stereo not drawn),"inconclusive: 10 µM [fluorescent, side channel, partial curve]",–
COc1ccccc1N(CC(=O)NC(C)(C)C)C(=O)C1CSC(=O)C1 (stereo not drawn),"inconclusive: 8.91 µM [inhibitor, single point]",–
COc1ccc(Oc2ccc3c(C(F)(F)F)cc(C(F)(F)F)nc3n2)cc1,"inconclusive: 12.6 µM [fluorescent, side channel, partial curve]",–
COc1ccc(-c2cc(C(F)(F)F)n3ncc(C(=O)O)c3n2)cc1OC,"inconclusive: 39.8 µM [inhibitor, single point]",–

SMILES,Potency,"FP activity change, negative = inhibition"
CCC(=O)N1CCN(c2ccc(Cl)cc2NC(=O)Cc2ccc(Cl)cc2)CC1,–,inactive: -7.94%
O=C(N/N=C\c1cc(Cl)ccc1O)c1ccc(S(=O)(=O)N2CCCCC2)cc1,"inconclusive: 7.08 µM [quencher, side channel, partial curve]",–
CCOC(=O)N1CCC(N2CCCC(C(=O)c3ccccc3OC)C2)CC1 (stereo not drawn),"inconclusive: 31.6 µM [inhibitor, single point]",–
COc1ccc(O)c(/C=N/NC(=O)CCC(=O)Nc2cccc(C)c2)c1,–,inactive: 24.1%
COCC1=C2c3ccccc3[C@H](C[N+](=O)[O-])C(C(=O)OC)(C(=O)OC)CC2C2C(=O)N(c3ccccc3)C(=O)C2C1 (stereo partly drawn),inactive,–
CCOC(=O)c1c(NC(=O)Cc2cccs2)sc(C(=O)NC2CCCC2)c1C,"inconclusive: 3.98 µM [fluorescent, side channel, full curve]",–
COc1cc(NC(=O)Nc2cccc(C(C)=O)c2)cc(OC)c1OC,–,inactive: 26.4%
c1cc2c(cc1C1CCCCC1)c1c3n2CCN=C3CCC1,"inconclusive: 7.08 µM [fluorescent, side channel, full curve, poor fit]",–
Cc1ccc(S(=O)(=O)NC(C)(C)CSc2nnc(Nc3ccccc3)s2)cc1,"inconclusive: 22.4 µM [quencher, side channel, single point]",–
COc1cc(NC(=O)c2cccc(F)c2)ccc1NC(=O)c1cc2ccccc2o1,"inconclusive: 17.8 µM [fluorescent, side channel, partial curve]",–
Cc1nc2c(C(=O)NCc3ccc4c(c3)OCO4)cnn2c(C)c1Cc1ccc(F)cc1Cl,"inconclusive: 6.31 µM [fluorescent, side channel, partial curve]",–
O=C(Nc1ccc(Cl)c(Cl)c1)Nc1nnc(CSc2ccccc2)s1,"inconclusive: 7.94 µM [quencher, side channel, full curve]",–
c1cncc(-c2nc3c(ccc4ccccc43)[nH]2)c1,"inconclusive: 25.1 µM [quencher, side channel, single point]",–
Cc1ccc2c(c1C)NC(C(=O)O)C1CC=CC21 (stereo not drawn),"inconclusive: 5.62 µM [quencher, side channel, partial curve] and inconclusive: 25.1 µM [quencher, side channel, partial curve]",–
O=C(N/N=C/c1ccccn1)c1cccc(NC(=O)c2ccc(Cl)cc2)c1,"inconclusive: 1.41 µM [quencher, side channel, full curve]",–
Cn1cnnc1SCC(=O)Nc1nc(-c2ccccc2)cs1,–,inactive: 27.1%
Cc1ccc(C2=Nc3ccccc3NC(C)(c3ccc(C)o3)C2)o1 (stereo not drawn),"inconclusive: 0.891 µM [inhibitor, full curve, poor fit]",–
CCc1cc(C(=O)N2CCCC(C(=O)c3ccc(Oc4ccccc4)cc3)C2)n(C)n1 (stereo not drawn),"inconclusive: 14.1 µM [inhibitor, partial curve]",–
O=C(COC(=O)c1cc(NS(=O)(=O)c2cccs2)ccc1O)Nc1cc(Cl)ccc1Cl,"inconclusive: 25.1 µM [quencher, side channel, partial curve]",–
O=C(O)CCC(=O)NNC(=O)c1cccc(Cl)c1,"inconclusive: 17.8 µM [inhibitor, single point]",–

SMILES,Potency,"FP activity change, negative = inhibition"
CC(=O)NN1C(=O)/C(=C\c2ccc(Cl)cc2)SC1=S,–,inactive: 1.78%
O=C(CSc1nnc(CNC(=O)c2c(F)cccc2Cl)o1)NCc1ccc2c(c1)OCO2,–,inactive: 9.12%
CCn1c(SCC(=O)N2CCN(c3cccc(Cl)c3)CC2)nc2ccccc2c1=O,–,inactive: -11.9%
O=C(NNC(=O)c1cc(-c2cccnc2)nc2ccccc12)Nc1ccc(Cl)cc1,"inconclusive: 10 µM [quencher, side channel, partial curve]",–
Cc1ccc(NC(=S)N/N=C/c2ccc([N+](=O)[O-])s2)cc1,"inconclusive: 20 µM [quencher, side channel, partial curve]",–
Oc1ccc(-c2c(C3=CCCCC3)sc3ccccc23)cc1,"inconclusive: 39.8 µM [quencher, side channel, single point]",–
CC12CN(C(=O)c3ccc(Cl)cc3)C3(C#N)CC1CCC23C (stereo not drawn),"inconclusive: 44.7 µM [fluorescent, side channel, partial curve]",–
O=C(Nc1ccc(OC(F)(F)F)cc1)c1ccc2nccnc2c1,"inconclusive: 20 µM [quencher, side channel, partial curve]",–
CCOc1ccc(N2C(=O)CC(SC(=NC)Nc3cccc(F)c3)C2=O)cc1 (stereo not drawn),"inconclusive: 17.8 µM [quencher, side channel, single point]",–
Oc1ccc(-c2cnc(-c3ccc(O)cc3)nc2)cc1,"inconclusive: 15.8 µM [quencher, side channel, partial curve]",–
COc1ccc2cc3c(N)nn(C(=O)c4ccc(Cl)c([N+](=O)[O-])c4)c3nc2c1,–,inactive: 3.29%
CCOc1ccc(C(=O)Nc2ccc(NC(=S)NC(=O)CC)cc2)cc1Cl,"inconclusive: 25.1 µM [inhibitor, single point]",–
CC(=O)Nc1nc(-c2cc([N+](=O)[O-])cs2)cs1,"inconclusive: 15.8 µM [quencher, side channel, partial curve]",–
CC(C)Cc1nc2oc3c(NCCCN4CCOCC4)ncnc3c2c2c1CCC2,"inconclusive: 10 µM [fluorescent, side channel, partial curve, poor fit]",–
CCOC(=O)c1ccc2nc(NC(C)=O)sc2c1,–,inactive: 14.8%
O=S(=O)(c1ccc(Cl)c(NC(=S)N/N=C/c2ccc(O)cc2)c1)N1CCOCC1,"inconclusive: 31.6 µM [quencher, side channel, single point]",–
COc1ccc(NC(=O)c2cc(S(=O)(=O)N3CCCCC3)c[nH]2)cc1Cl,"inconclusive: 35.5 µM [fluorescent, side channel, single point]",–
CCN1CCC(NC(=O)c2cc(OC)c(OC)cc2OC)CC1,"inconclusive: 39.8 µM [inhibitor, single point]",–
